# Inconclusive results, whose numbers are uncertain, are shown with a selection of clear calls. Active and inactive are the calls of the source.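 Rule for the calls, unless noted: active = thallium flux slope beyond 3 SD from same-plate DMSO control mean in most replicates, usually higher, sometimes lower; inconclusive = repeat tests gave conflicting results; inactive = no significant difference from controls in most replicates.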
# Test system: not listed separately
# Assay: compound effects on native HEK Tl+ uptake – HEK cells, counterscreen 1, counter-screen for KCC2 modulator project, confirmation (AID 1716;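 active = thallium flux rate significantly above the same plate's solvent-only control wells, beyond their mean plus 3 SD; inconclusive = the two replicate wells gave conflicting results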)
# Settings: HEK293 parental cells, thallium flux FluoZin2, ouabain; at 10 µM; baseline-ratio fluorescence slope, 10–20 s after thallium
row,SMILES,thallium flux rate (normalised fluorescence)
1,C/C(=N/NC(=O)c1ccc2c(c1)OCO2)c1ccc(Br)s1,inconclusive: 0.0103
2,O=C(O)c1ccc(N2CC3CC(C2)c2cccc(=O)n2C3)c(NC(=S)Nc2ccc(Cl)cc2Cl)c1 (stereo unspecified),inconclusive: 0.0118
3,O=C(/C=C/c1ccccc1)NC(=S)NNC(=O)Cc1cccs1,inconclusive: 0.0083
4,Cc1cccc(N2CCN(C(=O)CCCn3c(=S)[nH]c4cc5c(cc4c3=O)OCO5)CC2)c1C,inconclusive: 0.00877
5,CCOC(=O)c1c(NC(=O)CC2SC(N)=NC2=O)sc2c1CCCC2 (stereo unspecified),inconclusive: 0.00663
6,CCCN(CCC)S(=O)(=O)c1ccc(C(=O)Nc2nnc(-c3cc(OC)cc(OC)c3)o2)cc1,inconclusive: 0.0164
7,Cc1cc(C(=O)NC(=S)Nc2ccccc2N2CCOCC2)ccc1[N+](=O)[O-],inconclusive: 0.00775
8,Cn1c(=O)c2c(nc(NCC3CCCO3)n2Cc2cccc(Br)c2)n(C)c1=O (stereo unspecified),inactive: 0.00707
9,CC(C)n1c(-c2ccc(N(C)C)cc2)nc2ccccc21,inconclusive: 0.0054
10,COc1ccc2c(-c3ccccc3)cc(SC(C)C(N)=O)nc2c1 (stereo unspecified),active: 0.0143
11,O=C(N/N=C/c1ccc([N+](=O)[O-])s1)c1ccccc1,inconclusive: 0.0127
12,O=C(O)/C=C/c1ccccc1Oc1ccc(Cl)cc1Cl,inactive: 0.00682
13,Cc1cc(NC(=O)CSc2nc3ccccc3c(=O)n2Cc2ccc(F)cc2)no1,inconclusive: 0.0197
14,O=[N+]([O-])c1cc(/C=N/n2c(-c3cccnc3)n[nH]c2=S)ccc1Cl,inconclusive: 0.0117
15,CN(C(=O)c1cccc(C#N)c1)c1nnc(-c2cnccn2)s1,inactive: 0.00749
16,Cc1ccc(-n2ncc3c(Nc4cccc(C(=O)O)c4)ncnc32)cc1,inconclusive: 0.00609
17,O=C(NC(=S)Nc1cccc([N+](=O)[O-])c1)c1ccccc1,inconclusive: 0.0095
18,CC(C)Cc1cc(C(=O)Nc2sc3c(c2C#N)CCCC3)no1,inconclusive: 0.00905
19,COc1ccc(OC)c2sc(NNC(=O)COc3ccccc3)nc12,active: 0.0112
20,Clc1ccc(Oc2nc(N3CCOCC3)nc(N3CCOCC3)n2)cc1,inactive: 0.00737
21,Cc1ccc(/C=N/n2c(-c3ccc(Cl)cc3)n[nH]c2=S)o1,active: 0.0115
22,O=S(=O)(c1ccc(Cl)cc1)N(CCCN1CCOCC1)Cc1cccs1,inconclusive: 0.00643
23,Cc1ccc(-c2c[nH]c(=S)n2-c2ccccc2)cc1,inconclusive: 0.0152
24,Cc1ccccc1-n1c(-c2ccc3ccccc3n2)n[nH]c1=S,inconclusive: 0.0073
25,S=C(NCc1ccccc1Cl)Nc1ccccc1Cl,inactive: 0.00746
26,Cc1ccnc(NC(=S)NC(=O)c2cncc(Br)c2)c1,active: 0.0152

# Target: Solute carrier family 12 member 5 (Homo sapiens) (UniProt Q9H2X9)
# Assay: modulation of KCC2 thallium flux in HEK cells – cell-based, ouabain, retest, confirmation (AID 1717);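 note: slope of initial-normalized fluorescence between seconds 10 and 20 after thallium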
# Settings: HEK293-KCC2, thallium flux FluoZin2 fluorescence, at 10 µM, bidirectional: low = inhibitor, high = activator
# Chain of UniProt Q9H2X9 (Q9H2X9 whole entry, looked up): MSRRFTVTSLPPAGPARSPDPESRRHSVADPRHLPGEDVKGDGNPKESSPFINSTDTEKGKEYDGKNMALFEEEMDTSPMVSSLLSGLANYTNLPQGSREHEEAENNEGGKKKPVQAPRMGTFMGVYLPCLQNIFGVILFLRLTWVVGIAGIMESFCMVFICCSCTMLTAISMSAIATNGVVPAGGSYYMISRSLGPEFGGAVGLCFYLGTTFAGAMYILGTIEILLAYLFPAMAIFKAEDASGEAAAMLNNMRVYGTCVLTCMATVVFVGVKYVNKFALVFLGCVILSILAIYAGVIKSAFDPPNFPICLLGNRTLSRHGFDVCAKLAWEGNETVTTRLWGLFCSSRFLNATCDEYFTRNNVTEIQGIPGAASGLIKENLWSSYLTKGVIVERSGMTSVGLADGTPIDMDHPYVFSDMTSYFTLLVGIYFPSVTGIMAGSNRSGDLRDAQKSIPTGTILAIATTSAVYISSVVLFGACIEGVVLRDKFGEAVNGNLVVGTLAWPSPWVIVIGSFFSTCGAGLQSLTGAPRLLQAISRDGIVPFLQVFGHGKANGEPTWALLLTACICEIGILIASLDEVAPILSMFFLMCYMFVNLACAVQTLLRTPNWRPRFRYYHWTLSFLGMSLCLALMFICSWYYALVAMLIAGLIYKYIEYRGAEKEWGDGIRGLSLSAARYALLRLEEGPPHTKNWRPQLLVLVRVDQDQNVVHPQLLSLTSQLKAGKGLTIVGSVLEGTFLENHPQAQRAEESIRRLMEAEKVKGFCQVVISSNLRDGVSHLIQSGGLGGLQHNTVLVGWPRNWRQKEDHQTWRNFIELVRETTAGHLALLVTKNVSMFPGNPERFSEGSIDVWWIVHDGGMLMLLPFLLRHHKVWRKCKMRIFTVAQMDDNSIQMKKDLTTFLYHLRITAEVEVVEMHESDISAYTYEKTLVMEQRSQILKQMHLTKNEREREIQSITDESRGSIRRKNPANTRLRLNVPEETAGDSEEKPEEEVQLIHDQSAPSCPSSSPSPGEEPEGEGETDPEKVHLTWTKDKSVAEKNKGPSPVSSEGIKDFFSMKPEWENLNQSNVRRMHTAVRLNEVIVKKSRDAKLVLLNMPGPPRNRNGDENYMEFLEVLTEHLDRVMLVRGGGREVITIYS
row,SMILES,"raw Tl+ flux slope (below DMSO = inhibition, above = activation)"
1,CCCCC(CCC(=O)O)(C(=O)OCC)c1csc(Nc2ccc(C)cc2)n1 (stereo unspecified),active: 0.0125
2,CCn1c(SCC(N)=O)nnc1-c1ccc(S(=O)(=O)N2CCN(C)CC2)cc1,inactive: 0.0229
3,COc1ccc(C/C(C)=N/NC(=S)Nc2ccccc2F)cc1,active: 0.0391
4,S=c1nc(C2CC2)n(-c2ccccc2)[nH]1,inconclusive: 0.0274
5,Cc1ccc(NC(=S)NNc2ccc([N+](=O)[O-])cc2S(=O)(=O)Nc2ccccc2C(=O)O)cc1C,active: 0.0117
6,O=C(CNS(=O)(=O)c1c(Cl)cccc1Cl)OCc1csc(-c2ccccc2)n1,active: 0.0146
7,CCOc1ccccc1NC(=S)N(CCCN1CCOCC1)Cc1cn(C)c2ccccc12,inactive: 0.0186
8,CCOc1cc(/C=N/NC(=O)CN(CCc2ccccc2)S(=O)(=O)c2ccc(NC(C)=O)cc2)ccc1O,inconclusive: 0.0179
9,O=C(c1cc(COc2ccc(F)cc2Cl)on1)N1CCCC(OCc2cccnc2)C1 (stereo unspecified),active: 0.0145
10,O=C(N/N=C\c1cn(-c2ccccc2)nc1-c1ccccc1)c1ccc(Br)o1,inactive: 0.0216
11,CC(=O)SCC(=O)N=c1sc2cc(F)ccc2n1C,inactive: 0.0194
12,COc1cc(-c2nc(CN3CCN(c4ncccn4)CC3)c(C)o2)ccc1F,inactive: 0.0206
13,COc1cc(C(=O)NC(=S)NNC(=O)c2ccc3c(c2)OCO3)cc(OC)c1OC,inconclusive: 0.0226
14,CCn1c(SCC(=O)N(Cc2ccccc2)C2CCS(=O)(=O)C2)nc2ccccc2c1=O (stereo unspecified),inconclusive: 0.0215
15,C/C(=N/NC(=O)c1ccc2c(c1)OCO2)c1ccc(Br)s1,inconclusive: 0.0281
16,O=C(O)c1ccc(N2CC3CC(C2)c2cccc(=O)n2C3)c(NC(=S)Nc2ccc(Cl)cc2Cl)c1 (stereo unspecified),inconclusive: 0.0245
17,O=C(/C=C/c1ccccc1)NC(=S)NNC(=O)Cc1cccs1,inconclusive: 0.0222
18,Cc1cccc(N2CCN(C(=O)CCCn3c(=S)[nH]c4cc5c(cc4c3=O)OCO5)CC2)c1C,inconclusive: 0.0228
19,CCOC(=O)c1c(NC(=O)CC2SC(N)=NC2=O)sc2c1CCCC2 (stereo unspecified),inactive: 0.0189
20,CCCN(CCC)S(=O)(=O)c1ccc(C(=O)Nc2nnc(-c3cc(OC)cc(OC)c3)o2)cc1,active: 0.0287

row,SMILES,"raw Tl+ flux slope (below DMSO = inhibition, above = activation)"
1,Cc1cc(C(=O)NC(=S)Nc2ccccc2N2CCOCC2)ccc1[N+](=O)[O-],inconclusive: 0.0243
2,Cn1c(=O)c2c(nc(NCC3CCCO3)n2Cc2cccc(Br)c2)n(C)c1=O (stereo unspecified),inactive: 0.0204
3,CC(C)n1c(-c2ccc(N(C)C)cc2)nc2ccccc21,inactive: 0.0175
4,COc1ccc2c(-c3ccccc3)cc(SC(C)C(N)=O)nc2c1 (stereo unspecified),inactive: 0.0232
5,O=C(N/N=C/c1ccc([N+](=O)[O-])s1)c1ccccc1,active: 0.0278
6,O=C(O)/C=C/c1ccccc1Oc1ccc(Cl)cc1Cl,inconclusive: 0.0149
7,Cc1cc(NC(=O)CSc2nc3ccccc3c(=O)n2Cc2ccc(F)cc2)no1,inconclusive: 0.0267
8,O=[N+]([O-])c1cc(/C=N/n2c(-c3cccnc3)n[nH]c2=S)ccc1Cl,inconclusive: 0.0309
9,CN(C(=O)c1cccc(C#N)c1)c1nnc(-c2cnccn2)s1,inactive: 0.0233
10,Cc1ccc(-n2ncc3c(Nc4cccc(C(=O)O)c4)ncnc32)cc1,inactive: 0.0185
11,O=C(NC(=S)Nc1cccc([N+](=O)[O-])c1)c1ccccc1,inactive: 0.0242
12,CC(C)Cc1cc(C(=O)Nc2sc3c(c2C#N)CCCC3)no1,inconclusive: 0.0261
13,COc1ccc(OC)c2sc(NNC(=O)COc3ccccc3)nc12,inconclusive: 0.0219
14,Clc1ccc(Oc2nc(N3CCOCC3)nc(N3CCOCC3)n2)cc1,inactive: 0.0207
15,Cc1ccc(/C=N/n2c(-c3ccc(Cl)cc3)n[nH]c2=S)o1,inactive: 0.0258
16,O=S(=O)(c1ccc(Cl)cc1)N(CCCN1CCOCC1)Cc1cccs1,inactive: 0.015
17,Cc1ccc(-c2c[nH]c(=S)n2-c2ccccc2)cc1,inconclusive: 0.0279
18,Cc1ccccc1-n1c(-c2ccc3ccccc3n2)n[nH]c1=S,inconclusive: 0.0261
19,S=C(NCc1ccccc1Cl)Nc1ccccc1Cl,inconclusive: 0.0229
20,Cc1ccnc(NC(=S)NC(=O)c2cncc(Br)c2)c1,inconclusive: 0.026

# Reference: PubChem BioAssay
